Source: the supplement of paper PMC3334620
In all, about 33,000 sequences were measured (“E-score (-0.5 to 0.5)”: median about -0.012, highest 2% from about 0.29 on). Some of the results follow.

The sequences below were run against T1, Ybr033w (UniProt P38073) (assay: PBM E-score (8-mer binding enrichment) (E-score (-0.5 to 0.5)); higher = stronger / more preferred TF binding; most listed sequences are background and not binding sites). Details: protein concentration: 200 nM; construct: GST-full length.
T1 sequence: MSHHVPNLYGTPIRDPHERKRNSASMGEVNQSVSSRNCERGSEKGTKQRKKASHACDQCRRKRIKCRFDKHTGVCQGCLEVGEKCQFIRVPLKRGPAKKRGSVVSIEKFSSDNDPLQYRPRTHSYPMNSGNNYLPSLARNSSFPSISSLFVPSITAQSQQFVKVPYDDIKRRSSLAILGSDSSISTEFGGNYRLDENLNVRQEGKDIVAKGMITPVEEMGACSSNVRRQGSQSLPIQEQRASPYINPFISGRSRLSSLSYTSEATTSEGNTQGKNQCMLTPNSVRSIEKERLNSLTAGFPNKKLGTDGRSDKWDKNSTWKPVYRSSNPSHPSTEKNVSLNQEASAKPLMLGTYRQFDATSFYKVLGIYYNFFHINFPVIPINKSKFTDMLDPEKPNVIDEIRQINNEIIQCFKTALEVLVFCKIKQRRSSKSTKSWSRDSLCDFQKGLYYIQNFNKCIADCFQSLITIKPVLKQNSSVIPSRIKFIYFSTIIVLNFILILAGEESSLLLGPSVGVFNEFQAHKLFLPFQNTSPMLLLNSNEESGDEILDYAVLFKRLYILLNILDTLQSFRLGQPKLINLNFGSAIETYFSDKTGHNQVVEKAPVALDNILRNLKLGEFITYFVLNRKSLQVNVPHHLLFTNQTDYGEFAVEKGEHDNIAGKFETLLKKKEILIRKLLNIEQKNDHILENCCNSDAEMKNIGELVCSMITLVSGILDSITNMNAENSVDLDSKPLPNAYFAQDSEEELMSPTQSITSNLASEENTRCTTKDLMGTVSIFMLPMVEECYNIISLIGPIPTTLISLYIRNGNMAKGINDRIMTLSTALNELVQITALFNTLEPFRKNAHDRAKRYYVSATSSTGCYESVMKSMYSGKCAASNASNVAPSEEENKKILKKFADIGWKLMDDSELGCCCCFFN
Procedure, shortened: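 PURExpress in vitro transcription/translation supplied GST-tagged yeast transcription factors, either full-length or DNA-binding domain. Applied at about 100-200 nM to universal all-10-mer Agilent arrays double-stranded by primer extension, the bound protein was detected with fluorescent anti-GST. E-scores, modified Wilcoxon-Mann-Whitney statistics, were given by the Universal PBM Analysis Suite to ungapped eight-base words pooled with their reverse complements after masliner normalisation.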
With GTGCCAAA the “PBM E-score” value was -0.164.
With AAATATCA the “PBM E-score” value was 0.252.
For ATACAGAT, the “PBM E-score” value was 0.167.
AACTGCCT was tested, and the “PBM E-score” value was 0.126.
With CTTGTTAA the “PBM E-score” value was 0.113.
With CGTACGAA the “PBM E-score” value was 0.0522.
ATCCCCTC was tested, and the “PBM E-score” value was -0.187.
In the case of AAACTGTC, the “PBM E-score” value is reported as 0.0592.
With CGGGGTGC the “PBM E-score” value was -0.219.
In the case of GAAGAAGA, the “PBM E-score” value is reported as 0.0623.
In the case of CTGCTGTA, the “PBM E-score” value is reported as 0.072.
For GAGATGTA, the “PBM E-score” value was 0.132.
For CCTGCTTA, the “PBM E-score” value was -0.0521.
For AAACTGCT, the “PBM E-score” value was -0.0956.
In the case of AGCGAAGA, the “PBM E-score” value is reported as -0.162.
With AAGCTCCG the “PBM E-score” value was 0.00583.
TCGTCAAA was tested, and the “PBM E-score” value was 0.172.
CCCGTTAC was tested, and the “PBM E-score” value was -0.0764.
For AAACACAG, the “PBM E-score” value was 0.156.
With CTACGGTA the “PBM E-score” value was 0.0261.
ACGAACTA was tested, and the “PBM E-score” value was 0.158.
In the case of CTCTTCAA, the “PBM E-score” value is reported as -0.164.
In the case of GATTTTCC, the “PBM E-score” value is reported as 0.416.
With AAACTGAC the “PBM E-score” value was -0.0118.
For ACTAATAG, the “PBM E-score” value was 0.2.
For GTACTGTA, the “PBM E-score” value was -0.0259.
In the case of ATGGCGAC, the “PBM E-score” value is reported as -0.0981.
TCGGTCCA was tested, and the “PBM E-score” value was -0.146.
In the case of CTACACAG, the “PBM E-score” value is reported as 0.0413.
GTAGGCAC was tested, and the “PBM E-score” value was -0.13.
With CAAGTCGG the “PBM E-score” value was 0.0358.
With AACGATTC the “PBM E-score” value was 0.146.
ACTTTCGG was tested, and the “PBM E-score” value was -0.184.
ACTTCAAA was tested, and the “PBM E-score” value was 0.0779.
For ACCCTTCG, the “PBM E-score” value was -0.159.
With CAAAGTAA the “PBM E-score” value was 0.186.
With AATTTGGA the “PBM E-score” value was -0.00713.
In the case of ACCAATGC, the “PBM E-score” value is reported as 0.038.
For CCGGAAAA, the “PBM E-score” value was 0.44.
For AGAATTGG, the “PBM E-score” value was -0.0659.
CGATATAA was tested, and the “PBM E-score” value was 0.123.
With CCATCCGG the “PBM E-score” value was -0.169.
ACGCGCAA was tested, and the “PBM E-score” value was 0.159.
In the case of CAAACCGC, the “PBM E-score” value is reported as -0.122.
In the case of GCAGTCAC, the “PBM E-score” value is reported as -0.0861.
For ACCACCTG, the “PBM E-score” value was -0.0161.
GTGACTCA was tested, and the “PBM E-score” value was -0.0878.
ACAGATTG was tested, and the “PBM E-score” value was 0.0486.
In the case of GATAAAGA, the “PBM E-score” value is reported as 0.154.
For AATTGTTG, the “PBM E-score” value was 0.114.
CACTCATA was tested, and the “PBM E-score” value was 0.182.
In the case of CGATGCCA, the “PBM E-score” value is reported as -0.26.
AAGGGCTC was tested, and the “PBM E-score” value was -0.182.
For ATAATGTC, the “PBM E-score” value was 0.0977.
AGTACAGG was tested, and the “PBM E-score” value was 0.0939.
GCGAAAGC was tested, and the “PBM E-score” value was -0.0712.
AAAGAAGG was tested, and the “PBM E-score” value was -0.0787.
AGCATTTG was tested, and the “PBM E-score” value was 0.105.
With CGGCTGGC the “PBM E-score” value was -0.261.
With CCGTAACA the “PBM E-score” value was -0.0808.
ACACGACG was tested, and the “PBM E-score” value was -0.0483.
For ATTTGTCA, the “PBM E-score” value was 0.16.
In the case of ATGTAAGA, the “PBM E-score” value is reported as 0.217.
ATGCACAT was tested, and the “PBM E-score” value was 0.0773.
For ACTTCCAA, the “PBM E-score” value was 0.135.
In the case of ACCAGGGA, the “PBM E-score” value is reported as -0.238.
For CCGGGGAG, the “PBM E-score” value was -0.227.
In the case of AACTATGT, the “PBM E-score” value is reported as -0.0122.
In the case of ACTAGAAT, the “PBM E-score” value is reported as 0.167.
AATCAAGT was tested, and the “PBM E-score” value was 0.128.
CGAAAAAG was tested, and the “PBM E-score” value was 0.121.
With ACGCCCGA the “PBM E-score” value was -0.224.
For ACTTCCCA, the “PBM E-score” value was 0.00549.
For CCTGTAAG, the “PBM E-score” value was -0.0311.
GCATCAAC was tested, and the “PBM E-score” value was 0.0597.
In the case of AAAATTTA, the “PBM E-score” value is reported as 0.269.
With GTGGAAGA the “PBM E-score” value was 0.137.
With CGACCGGA the “PBM E-score” value was 0.00568.
With ACCGGCGG the “PBM E-score” value was -0.152.
CCTTTAAG was tested, and the “PBM E-score” value was -0.053.
In the case of TATTGAGA, the “PBM E-score” value is reported as 0.173.
For GTAAGTCA, the “PBM E-score” value was 0.0193.
ACTGGCGG was tested, and the “PBM E-score” value was -0.00828.
In the case of CGGCCGAC, the “PBM E-score” value is reported as -0.0576.
For ACAGAGAA, the “PBM E-score” value was 0.0806.
CTAGGTGC was tested, and the “PBM E-score” value was -0.206.
In the case of TACATCCA, the “PBM E-score” value is reported as 0.15.
For CGCGGTAC, the “PBM E-score” value was -0.147.
With TCATAAGA the “PBM E-score” value was 0.114.
In the case of ACCGAGTG, the “PBM E-score” value is reported as -0.115.
In the case of TAATTTCA, the “PBM E-score” value is reported as 0.289.
For CCTGGGCC, the “PBM E-score” value was -0.286.
With AGGCTGCG the “PBM E-score” value was 0.00235.
For CCAGTAAA, the “PBM E-score” value was 0.0984.
